Whole data set: some 33,000 sequences, median “E-score (-0.5 to 0.5)” near -0.011, cut for the highest 2% near 0.28. The list shows a part of the results.
The sequences below were run against T1, Gcr1 (UniProt P07261) (assay: PBM E-score (8-mer binding enrichment) (E-score (-0.5 to 0.5)); higher = stronger / more preferred TF binding; most listed sequences are background and not binding sites). Conditions: protein concentration: 100 nM; construct: GST-full length.
T1 sequence: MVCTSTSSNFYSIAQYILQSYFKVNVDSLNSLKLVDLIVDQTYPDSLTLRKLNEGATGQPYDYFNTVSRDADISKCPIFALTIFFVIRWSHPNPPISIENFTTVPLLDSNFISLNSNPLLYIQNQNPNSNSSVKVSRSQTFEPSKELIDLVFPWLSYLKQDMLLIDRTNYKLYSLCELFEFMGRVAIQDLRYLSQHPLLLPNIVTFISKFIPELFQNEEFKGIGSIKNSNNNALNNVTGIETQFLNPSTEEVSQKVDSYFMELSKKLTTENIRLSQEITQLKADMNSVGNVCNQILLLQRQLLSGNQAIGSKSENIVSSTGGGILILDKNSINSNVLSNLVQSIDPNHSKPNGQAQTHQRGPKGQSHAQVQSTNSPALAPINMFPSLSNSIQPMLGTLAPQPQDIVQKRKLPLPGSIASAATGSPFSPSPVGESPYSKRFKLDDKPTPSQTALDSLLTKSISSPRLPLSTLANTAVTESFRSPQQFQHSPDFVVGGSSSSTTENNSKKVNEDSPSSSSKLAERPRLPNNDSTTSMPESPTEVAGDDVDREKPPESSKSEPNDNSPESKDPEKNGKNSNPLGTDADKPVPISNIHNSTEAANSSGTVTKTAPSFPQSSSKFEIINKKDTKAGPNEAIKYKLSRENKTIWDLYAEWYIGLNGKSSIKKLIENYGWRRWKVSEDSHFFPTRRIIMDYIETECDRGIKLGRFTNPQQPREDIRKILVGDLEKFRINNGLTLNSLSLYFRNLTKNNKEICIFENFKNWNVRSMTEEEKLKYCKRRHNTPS
In short: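 For each ungapped eight-base word taken together with its reverse complement, the Universal PBM Analysis Suite assigned an E-score. Binding data came from GST-tagged yeast transcription factors, applied at about 100-200 nM, on universal all-10-mer Agilent arrays made double-stranded by primer extension. Fluorescent anti-GST marked bound protein, and scans were normalised with masliner.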

Sequence	PBM E-score
GCTAGCGA	-0.0519
ACGGAGAC	-0.0545
AAGTTATA	0.261
GGCGTATA	0.195
ACCGAACC	-0.0945
ATGCTAGA	0.201
TCGCGCCA	-0.185
ATTACTAC	-0.191
AGACCTGG	-0.216
TCATTAGA	0.102
AGTTTCGA	-0.151
CCATTGGC	0.0633
ATTAGCAG	0.177
CGTAGGAA	0.0528
ACAGCCGT	-0.317
CATCCTGG	0.213
TCTAGTAA	0.0813
ATTACCGG	0.173
ATGGATGG	-0.034
CGGCTCGA	-0.121
AACCCCCG	-0.0829
CTGGAAGA	0.0722
ATTTTTCC	-0.0348
AACTGCGA	0.0401
AACCCCAG	0.0204

Sequence	PBM E-score
AGAAAGAA	-0.123
GCTGCTGA	0.199
AGGTGCGA	-0.0572
CAAGCTGG	-0.0711
AAACCGGG	-0.0099
CCAACGCC	-0.205
ATTGCAAC	0.0417
TCATTCGA	-0.0779
TAGATAGA	-0.135
GCGCGTAA	0.197
ATTTAGAC	0.139
CTTTTTGC	0.0974
AGATGTAG	-0.109
TACTGATA	0.273
AGTCACAC	-0.15
AGGGATAG	-0.184
AGATCGGC	-0.098
CTAGTTCA	0.132
CTGACCGA	-0.343
GCTCTCCA	-0.191
AACTTTCA	0.0331
AAAGGCCT	-0.292
GCAGCGTA	0.186
AAAGAACC	0.167
AGGACACG	-0.195

Sequence	PBM E-score
AATTATCA	0.149
CGATTCAC	0.131
AAGAAGCG	0.0955
AGTCTTGA	-0.162
AACTGGAC	0.198
ACTGGGGA	0.0252
ATACGCAA	0.186
CCGGGCTC	0.12
ACGCCAAG	0.0396
AATAAGCA	-0.0342
GAACGAGC	-0.155
AGGGTCGC	-0.074
GACTGCGA	-0.173
AACCTCCA	-0.163
GATGGTGA	-0.161
CCCACCAC	0.0761
GCGGGAAC	0.00746
ATGCCTAA	0.0538
GAGTGACA	-0.0369
GAGGACTA	-0.125
ACCGCCTG	-0.0849
ATCTACCA	-0.103
CGCTGGAG	0.202
CACGAACG	-0.0533
CTAACGTC	-0.0629

Sequence	PBM E-score
CACGATTA	-0.0818
ATCCTTCG	-0.0408
GGTGGGTA	-0.0975
CGCGACCA	0.00425
AAAACTGA	-0.00516
GATGGCAC	-0.0293
AGTCTGAC	-0.0237
GAGTCCAC	0.257
CTAACGCA	-0.0647
CCGCAAGG	-0.134
ATTGCGGA	0.046
TCAGCGAA	-0.129
CAGCTTCA	0.0949
ATTCTCCG	-0.196
AAACACGA	0.158
AGATTATA	0.0894
CACACGAG	-0.111
ATTTTGTA	0.0397
CGTAGCGA	-0.0909
ACTCGAAT	0.0813
TTATCAAA	0.114
GCGCTACC	0.0508
AAGAAGCA	0.165
AAATGGAA	0.239
ATTTAATA	0.242

Sequence	PBM E-score
AAGACGCT	0.218
TATGAACA	0.0957
GCGAGGCA	-0.15
CAGGGCTC	-0.0457
CACAAAAG	0.0558
AGTAATAT	0.224
CTCAGACC	-0.0702
GTGAGGTA	-0.282
CAGCCACC	0.123
CGAGAAAA	0.0592
CTAATCGC	-0.0339
GACAATAC	-0.0695
CTGCAATC	-0.023
ATCCGTAG	0.068
TAAGATGA	-0.0509
CTACAGTA	-0.0972
CCTCGACA	-0.139
CTGTCAGA	-0.0471
AGCGTTAC	-0.183
GGAAATAC	0.17
ATGGAGAA	0.0558
AGAACGGA	0.0749
AGTCCGAC	-0.091
CACCGTAA	0.00054
ATATAGAC	0.0385

Sequence	PBM E-score
ACGCAACG	-0.0668
CCCCAGAC	0.0344
CATCTCTC	-0.127
TCACTGAA	0.075
AAAACTCG	0.019
ATTAGAGG	0.134
ATTCTTAC	0.0639
CCCAGGTC	-0.0783
CCTGCGCC	-0.0142
ACTCAAAA	0.0458
CACCTCGA	-0.0309
AGTCGTTC	-0.0254
AGATGGAT	-0.0745
CGACGTCC	0.0613
AGGTGTTA	-0.188
AGACATCA	-0.103
ACTGTCAC	-0.178
CAGGGTTA	-0.061
AACATTGG	-0.02
ATAGCTAC	-0.0591
CCCGTTAA	-0.034
ACAATAAA	-0.118
ACGACGCT	0.263
GCTCGAGA	-0.166
GCCGTTGA	-0.158

Sequence	PBM E-score
GTTGTACA	0.0242
GGCCATGA	-0.124
GCTTATGA	-0.198
AGGCATTA	0.0626
CATCGACG	-0.0993
GGCTGTAA	-0.12
GTAGTGAC	0.0161
CGCATCCA	0.323
AAGGGTCG	-0.105
GAGAACGA	-0.0986
AGATCTCA	-0.223
GCTCGATA	-0.0861
CGGGGTCC	-0.0385
TCTGAAGA	-0.0693
ACGCCACC	0.0273
ATAATTTG	0.0276
AAACAACA	-0.0653
CGATTATC	-0.0247
AAGTTGTA	0.181
CCACATCG	0.0843
CGGGGATA	-0.0309
TCTCTGCA	-0.0968
CCAACCAA	0.0612
ACACGGCC	-0.00061
TCGTAAAA	0.231

Sequence	PBM E-score
CCTACGAC	-0.195
CGCTGAGC	0.0119
CTATGGCA	-0.0709
TCATGCCA	-0.148
ACTAGCCG	-0.0477
CCTCTGCA	-0.0717
CAGCCCTC	-0.0883
AGGCGGTG	-0.254
TCTTTTAA	0.131
CCGTTGAG	-0.198
ATGGCACA	-0.0956
CTCTCCAA	-0.0761
GACCGAAA	-0.204
GGTTTTTA	-0.0336
AGTTGGGC	0.0733
ACTAACTA	-0.256
ATGGGCTA	-0.0311
CCGGAGGA	-0.0617
AAGTCTCG	-0.336
CAAAAGTA	0.0094
CCGCGGGA	0.117
ACCGTAAG	-0.0765
AGAACCCA	0.234
ACACCAGT	-0.145
ACACAAAC	0.0411

Sequence	PBM E-score
CCCGATGC	-0.124
GCCCTGGA	-0.0767
GCACTGAC	-0.0549
CCACGAGA	0.0271
AGTCCTCC	-0.206
CCCAGACA	-0.0251
CATAGGAA	0.134
GGCTATGA	-0.188
TATTTGGA	0.313
GAGGACCA	-0.085
GTGTGTTA	-0.0104
ATCCGTGC	0.0699
AATCTAAT	0.0917
CGGCGGAA	0.148
ATGGACCA	0.0665
CGCGCAAC	0.00246
ACTATCCA	-0.0109
ATAGGACA	-0.127
CCACGTTA	-0.0265
